Test results reported in publication PMC6919601, “Identification of Plasmodium dipeptidyl aminopeptidase allosteric inhibitors by high throughput screening” (PLoS ONE, 2019).
In all, about 110,000 compounds went through this assay and about 230 (0.21%) showed an effect of 50% or more. Some of the results follow.

Molecular target: DPAP1 (Plasmodium falciparum, UniProt Q8IIJ9)
Experiment: primary screen, percent inhibition; read by cleavage of a fluorogenic dipeptide substrate; higher = more effect of the substance
Design: species or system P. falciparum D10 trophozoite lysates; single well
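Also: 30 min substrate incubation versus DMSO and 10 µM JCP410 controls.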

Sequence of DPAP1 (Q8IIJ9 whole entry, looked up): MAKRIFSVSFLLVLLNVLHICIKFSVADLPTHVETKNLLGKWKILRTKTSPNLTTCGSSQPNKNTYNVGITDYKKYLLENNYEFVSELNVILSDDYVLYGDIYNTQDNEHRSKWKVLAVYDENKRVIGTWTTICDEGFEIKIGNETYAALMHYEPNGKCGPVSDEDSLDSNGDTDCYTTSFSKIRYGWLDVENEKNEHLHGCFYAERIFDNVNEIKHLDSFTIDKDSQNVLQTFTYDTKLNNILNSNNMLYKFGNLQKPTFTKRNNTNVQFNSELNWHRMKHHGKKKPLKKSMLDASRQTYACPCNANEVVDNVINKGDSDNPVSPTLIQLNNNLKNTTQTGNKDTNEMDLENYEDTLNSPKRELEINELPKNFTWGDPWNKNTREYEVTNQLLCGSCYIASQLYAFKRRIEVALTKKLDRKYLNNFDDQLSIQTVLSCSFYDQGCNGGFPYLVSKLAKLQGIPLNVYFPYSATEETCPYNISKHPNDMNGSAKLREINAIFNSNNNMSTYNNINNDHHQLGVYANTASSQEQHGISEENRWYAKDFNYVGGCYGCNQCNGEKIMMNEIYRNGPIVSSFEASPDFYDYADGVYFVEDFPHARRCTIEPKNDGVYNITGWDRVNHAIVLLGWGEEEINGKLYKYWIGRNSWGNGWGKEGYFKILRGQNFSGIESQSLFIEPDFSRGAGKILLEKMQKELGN

Row | SMILES | % Inhibition @ 10 uM [%]
1 | Cc1ccc(Cn2c(C)c3cnn(CC(=O)NC(C)CCc4ccccc4)c(=O)c3c2C)cc1 (centres unmarked) | -3.96
2 | C=C(C)Cn1c(SCCc2ccccc2)nc2c1c(=O)[nH]c(=O)n2C | 8.26
3 | O=C(Cn1ncc2c1-c1ccccc1OC2)Nc1cccnc1Cl | 0.981
4 | CC(C)(C)c1ccccc1OCC(=O)NC1CCCC1 | 3.01
5 | O=C1CCC(C(=O)Nc2cccc(Br)c2)N1 (centres unmarked) | -6.08
6 | Nc1ccc(-c2nc3cc(N)ccc3o2)c(O)c1 | -3.52
7 | Cc1oc(-c2ccccc2)cc1C(N)=O | 2.05
8 | COc1ccc(CNC(=O)c2cnc3ccccn3c2=O)cc1 | 0.0579
9 | CC(C)(O)C#Cc1ccc(C(=O)N2CCC(C(N)=O)(N3CCCCC3)CC2)cc1 | -0.661
10 | OCCN(Cc1ccccc1)Cc1cccc(Br)c1 | -7.93
11 | N=C(NOC(=O)c1ccco1)c1ccccn1 | -3.63
12 | CCN(CC)c1ccc(CN2CCCC(CO)C2)cc1 (centres unmarked) | 0.472
13 | CS(=O)(=O)N(CC(=O)Nc1cccc(F)c1)Cc1ccccc1 | -7.5
14 | Nc1ncnc2c1ncn2Cc1ccccc1 | 1.25
15 | COCCNC(=O)c1cc2n(n1)C(C(F)(F)F)CC(c1ccc(Br)cc1)N2 (centres unmarked) | 7.93
16 | CNC(=O)/C(C#N)=C/c1c(Oc2cccc(C)c2C)nc2c(C)cccn2c1=O | -3.23
17 | COc1cccc(CNC2CCCCCCC2)c1OC | -4.04
18 | O=C(CCN1C(=O)C2C3C=CC(C3)C2C1=O)Nc1cccnc1 (centres unmarked) | -0.551
19 | COc1cccc(NC(=O)CSC2=C(C#N)C(c3ccc(Cl)cc3)CC(=O)N2)c1 (centres unmarked) | 1.37
20 | Cc1cc2ccccc2n1CCNC(=O)c1cccc(C(F)(F)F)c1 | -4.81
21 | O=C1C(NS(=O)(=O)c2ccccc2)=C(N2CCOCC2)C(=O)c2ccccc21 | 7.92
22 | Cc1cc(O)c(C2=NCCSC(c3cccc(O)c3)C2)c(=O)o1 (centres unmarked) | 2.94
23 | Cc1cccc(NC(=O)CN2CC(c3ccccc3)CC2=O)c1C (centres unmarked) | 1.15
24 | CC1CCN(C(=O)Cn2ncc3c(Cl)cccc32)CC1 | 3.65
25 | O=C(CSc1nc2ccc(N3C(=O)c4ccccc4C3=O)cc2s1)NC1CC1 | 1.37
26 | COc1ccc(OC)c(N(CC(=O)Nc2ccc(Cl)cc2)S(C)(=O)=O)c1 | 0.324

Row | SMILES | % Inhibition @ 10 uM [%]
27 | O=C1NC(NS(=O)(=O)c2ccc(Cl)cc2)(C(F)(F)F)C(=O)N1Cc1cccnc1 (centres unmarked) | -2.63
28 | Cc1ccc(CNC(=O)CCc2ccc(S(=O)(=O)NC3CCCCC3)cc2)cc1 | 1.1
29 | CCC1=NN(C(=O)c2cccnc2)C(O)(c2ccccc2)C1 (centres unmarked) | 1.96
30 | C=CCN1C(=O)N/C(=C/c2ccc(C(C)C)cc2)C1=O | 2.98
31 | O=C(O)c1c(F)c(F)c(F)c(F)c1-c1ccc(Cl)cc1 | -3.41
32 | COc1ccc(S(=O)(=O)Nc2ccc(Cl)cc2)cc1 | 0.135
33 | O=c1/c(=C/c2ccc(-c3ccc(F)cc3)o2)sc2nc(-c3ccco3)nn12 | -3.64
34 | COc1ccccc1N1CCN(C(=O)c2ccccc2C)CC1 | 1.35
35 | CCNC(=O)/C(C#N)=C/c1c(Oc2cc(C)ccc2C(C)C)nc2ccccn2c1=O | 75.9
36 | CC(NC(=O)c1cc2c(=O)n3ccccc3nc2n(CC2CCCO2)c1=N)c1ccccc1 (centres unmarked) | -1.47
37 | O=C(CN1C(=O)CSc2ncccc21)NCc1cccnc1 | 1.03
38 | O=C(Nc1nn2c(-c3ccco3)nnc2s1)C1CCCCC1 | -0.0652
39 | Cc1ccc(-n2cc(-c3ccccc3)c3c(NCCCN4CCCC4=O)ncnc32)cc1 | 5.69
40 | CCOC(=O)c1nnn(-c2nonc2N)c1-c1cccs1 | 4.84
41 | COc1ccc(NC(=O)CN(c2ccc(C)cc2)S(C)(=O)=O)cc1Cl | -20.8
42 | Cc1cc(C)cc(NC(=O)c2cccc([N+](=O)[O-])c2)c1 | 2.22
43 | Cc1nc(Oc2ccccc2)c2ccccc2n1 | -0.872
44 | O=C(O)Cc1ccc(O)cc1 | 0.565
45 | CC1CCc2c(sc3ncnc(N4CCOCC4)c23)C1 (centres unmarked) | 8.47
46 | Cc1nnc(N2CCOCC2)c2ccccc12 | -7.07
47 | O=C(CC(C(=O)O)c1ccccc1)Nc1ccccc1 (centres unmarked) | -0.95
48 | CCCc1c(C)nc2c(C(=O)OC)cnn2c1O | -3.94
49 | O=C(CN1C(=O)S/C(=C/c2cccs2)C1=O)N1CCOCC1 | -3.04
50 | CNC(=O)CN(c1ccc(C)cc1)S(=O)(=O)c1ccc(OC)c(OC)c1 | 0.324
51 | COc1ccc(S(=O)(=O)Nc2ccc(Br)cc2)cc1 | -2.6
52 | COc1ccccc1/C=C1\C(=O)NC(=S)N(c2ccccc2OC)C1=O | 0.912

Row | SMILES | % Inhibition @ 10 uM [%]
53 | S=C(CN1CCCC1=S)NCCc1ccccc1 | -0.424
54 | O=C(CSc1nnc(-c2ccccc2)n1-c1ccccc1)N1CCN(C(=O)c2ccccc2)CC1 | 2.18
55 | O=C1N=C(c2ccccc2)S/C1=C\c1ccc2c(c1)OCO2 | 0.884
56 | COc1cc(C(=O)Nc2sc(Cc3ccccc3)c(C)c2C(N)=O)cc(OC)c1OC | 2.27
57 | O=C(c1ccccc1)N1CCN(CC(O)COc2ccc3ccccc3c2Br)CC1 (centres unmarked) | -5.48
58 | Cc1ccc2[nH]cc(CCNC(=O)C3CCCNC3=O)c2c1 (centres unmarked) | -5.38
59 | COc1ccc(CCNC(=O)C2C3C=CC(C3)C2C(=O)O)cc1OC (centres unmarked) | 8.69
60 | Cc1ccc2ncc(S(=O)(=O)c3ccc(Cl)cc3)c(N3CCOCC3)c2c1 | -4.51
61 | COCCNC(=O)c1nc(-c2cccnc2)no1 | -0.495
62 | Cc1cccc(Oc2nc3ccccn3c(=O)c2/C=C(\C#N)S(=O)(=O)c2ccc(Cl)cc2)c1C | -5.1
63 | COCCN1C(=O)c2ccccc2C(C(=O)NCCc2ccsc2)C1c1cccs1 (centres unmarked) | -1.98
64 | Fc1ccc(N2CCN(Cc3cn4ccccc4n3)CC2)cc1 | 4.68
65 | Cc1ccnc(NC(=O)C2CCCN(c3ncnc4c3nc3n4CCCCC3)C2)c1 (centres unmarked) | -1.46
66 | Cc1cccc(OCC(=O)N2CCN(C(=O)CCC3CCCC3)CC2)c1 | -1.6
67 | COc1cc(-c2nnc3s/c(=C\c4ccco4)c(=O)n23)cc(OC)c1OC | 11.2
68 | COc1ccc(OC)c(NS(=O)(=O)c2ccc(OC)c(Cl)c2Cl)c1 | -3.29
69 | CCOC(=O)N1CCN(C(=O)CSc2nnc(-c3ccc(OC)cc3)o2)CC1 | 2.97
70 | Cn1c(C(=O)O)c(CC(=O)Nc2cnc3ccccc3c2)c2ccccc21 | 2.84
71 | COC(=O)c1cc(S(=O)(=O)NCc2cccs2)c[nH]1 | 4.92
72 | COc1ccc(C2C3=C(O)CCCC3=NC(C)=C2C(=O)Nc2ccc(Br)cn2)cc1 (centres unmarked) | -0.522
73 | Cc1ccccc1OCCOCCN1CCN(C)CC1 | -5.54
74 | N#CCCN(C1CCCCC1)S(=O)(=O)c1ccc(Cl)cc1 | -4.96
75 | Cc1scc(CN2CCN(Cc3ccccc3)CC2)c1C | 6.4
76 | CC(C)CN1C(=O)c2ccccc2C(C(=O)NC(C)C)C1c1cccs1 (centres unmarked) | 1.97
77 | Cn1cc(NC(=O)NCCc2ccc(Cl)cc2)c2ccccc2c1=O | 3.45
78 | CC(C)CN1C(=O)c2ccc(C(=O)NC3CCCCC3)cc2C1=O | -8.92

Row | SMILES | % Inhibition @ 10 uM [%]
79 | CCOc1cc(C2C3=C(CC(C)(C)CC3=O)OC3=C2C(=O)CC(C)(C)C3)cc(Br)c1O | -6.65
80 | CC(C)CC(C(=O)NCC#N)c1cccc(-c2ccc(-c3csc(N(C)C)n3)cc2)c1 (centres unmarked) | -4.72
81 | N=c1n(CC(N)=O)c2ccccc2n1Cc1ccc(Cl)c(Cl)c1 | -5.3
82 | Cc1cc(NC(=O)CN(c2cccc(C)c2C)S(C)(=O)=O)ccc1Br | -0.48
83 | CNC(=O)c1ccc(C(=O)N(C(C)C)C(C)C)cc1 | 3.74
84 | O=C(Nc1cccc(Cl)c1)c1cccc(NC(=O)c2cccs2)c1 | -4.43
85 | CCN1CCCC1CNS(=O)(=O)c1cc(-c2onc(C)c2C)ccc1OC (centres unmarked) | -1.95
86 | O=C(Nc1sc2c(c1C(=O)NCCc1ccccc1)CCC2)c1cc(=O)c2cc(Cl)ccc2o1 | -3.24
87 | CCOc1ccc(C(=O)Nc2ccc(F)c(Cl)c2)cc1 | 2.65
88 | O=C(NCCc1ccncc1)Nc1ccc(Cl)c(Cl)c1 | -12.7
89 | CC1SC2(NC1=O)C1CC3CC(C1)CC2C3 (centres unmarked) | -1.08
90 | CCCCC1CCC(C(=O)N(Cc2sccc2C)C2CCS(=O)(=O)C2)CC1 (centres unmarked) | 3.77
91 | Cc1onc(-c2ccccc2Cl)c1C(=O)N1C(C)CCCC1C (centres unmarked) | -6.36
92 | O=C1C(c2ccc(Cl)cc2)N(Cc2ccc3c(c2)OCO3)C(=O)CN1C1CCCCC1 (centres unmarked) | 2.9
93 | CC(=O)Nc1ccc(NC(=O)c2oc3ccc(C)cc3c2C)cc1 | 2.43
94 | CCOc1ccccc1C1C2=C(O)CCCC2=NC(C)=C1C(=O)Nc1ccccc1C (centres unmarked) | 2.51
95 | CC(=O)c1ccc(N2CN=c3s/c(=C\c4ccco4)c(=O)n3C2)cc1 | -3.63
96 | Cc1c(NC(=O)N2CCC3(CC2)OCCO3)sc2nc3n(c(=O)c12)CCC(C)CC3 (centres unmarked) | 6.35
97 | Cc1cc2ncn(C(=O)Cc3ccc(F)cc3)c2cc1C | -1.33
98 | CN(C)c1ccc(NC(=O)C2C3C=CC(C3)C2C(=O)O)cc1 (centres unmarked) | -8.46
99 | O=C(NCc1ccccc1)C(Cc1ccccc1)NS(=O)(=O)c1ccc(Br)cc1 (centres unmarked) | -0.406
100 | O=C(N/C(=C\c1ccco1)C(=O)N1CCOCC1)c1cccc(Br)c1 | -2.88
101 | O=C(O)c1ccc(-c2ccccc2)s1 | 2.84
